# Test results published in the supplement of paper PMC8728848.
# The list shows a part of the results.
# B1: MGL (Homo sapiens), Q8IUN9 (protein)
# chain: MTRTYENFQYLENKVKVQGFKNGPLPLQSLLQRLCSGPCHLLLSLGLGLLLLVIICVVGFQNSKFQRDLVTLRTDFSNFTSNTVAEIQALTSQGSSLEETIASLKAEVEGFKQERQAGVSELQEHTTQKAHLGHCPHCPSVCVPVHSEMLLRVQQLVQDLKKLTCQVATLNNNASTEGTCCPVNWVEHQDSCYWFSHSGMSWAEAEKYCQLKNAHLVVINSREEQNFVQKYLGSAYTWMGLSDPEGAWKWVDGTDYATGFQNWKPGQPDDWQGHGLGGGEDCAHFHPDGRWNDDVCQRPYHWVCEAGLGQTSQESH
# Key:
# Assay in all cases: glycan array binding signal (z-score within array); higher = stronger binding
# Details in all cases: glycan notation: IUPAC condensed, linker removed
# [1] = molecular target: Neu5Ac(a2-6)Gal(b1-4)GlcNAc(b1-2)Man(a1-3)[GlcNAc(b1-4)][Neu5Ac(a2-6)Gal(b1-4)GlcNAc(b1-2)Man(a1-6)]Man(b1-4)GlcNAc(b1-4)GlcNAc
# In short: (§1)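 Glycan array data were curated from 3228 arrays in the Consortium for Functional Glycomics database and kept only where the protein sequence was available. Glycan names were converted to IUPAC-condensed notation, and columns mapping to the same glycan were averaged. The binding signal is a within-array Z-score, averaged across arrays of the same protein sequence at different concentrations or buffers and across linkers. Negative Z-scores can be read as non-binding.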
# [2] = molecular target: Neu5Ac(a2-6)Gal(b1-4)GlcNAc(b1-2)Man(a1-3)[Man(a1-6)]Man(b1-4)GlcNAc(b1-4)GlcNAc
# In short: as §1
# [3] = molecular target: Neu5Ac(a2-6)Gal(b1-4)GlcNAc(b1-2)Man(a1-3)[Neu5Ac(a2-3)Gal(b1-4)GlcNAc(b1-2)Man(a1-6)]Man(b1-4)GlcNAc(b1-4)GlcNAc
# In short: as §1
# [4] = molecular target: Neu5Ac(a2-6)Gal(b1-4)GlcNAc(b1-2)Man(a1-3)[Neu5Ac(a2-6)Gal(b1-4)GlcNAc(b1-2)Man(a1-6)]Man(b1-4)GlcNAc(b1-4)GlcNAc
# In short: as §1
# [5] = molecular target: Neu5Ac(a2-6)Gal(b1-4)GlcNAc(b1-2)Man(a1-3)[Neu5Ac(a2-6)Gal(b1-4)GlcNAc(b1-2)Man(a1-6)]Man(b1-4)GlcNAc(b1-4)[Fuc(a1-6)]GlcNAc
# In short: as §1
# [6] = molecular target: Neu5Ac(a2-6)Gal(b1-4)GlcNAc(b1-2)Man(a1-6)Man(b1-4)GlcNAc(b1-4)GlcNAc
# In short: as §1
# [7] = molecular target: Neu5Ac(a2-6)Gal(b1-4)GlcNAc(b1-2)Man(a1-6)[Gal(b1-4)GlcNAc(b1-2)Man(a1-3)]Man(b1-4)GlcNAc(b1-4)GlcNAc
# In short: as §1
# [8] = molecular target: Neu5Ac(a2-6)Gal(b1-4)GlcNAc(b1-2)Man(a1-6)[GlcNAc(b1-2)Man(a1-3)]Man(b1-4)GlcNAc(b1-4)GlcNAc
# In short: as §1
# [9] = molecular target: Neu5Ac(a2-6)Gal(b1-4)GlcNAc(b1-2)Man(a1-6)[Man(a1-3)]Man(b1-4)GlcNAc(b1-4)GlcNAc
# In short: as §1
# [10] = molecular target: Neu5Ac(a2-6)Gal(b1-4)GlcNAc(b1-2)[Neu5Ac(a2-6)Gal(b1-4)GlcNAc(b1-4)]Man(a1-3)[GlcNAc(b1-4)][Neu5Ac(a2-6)Gal(b1-4)GlcNAc(b1-2)[Neu5Ac(a2-6)Gal(b1-4)GlcNAc(b1-6)]Man(a1-6)]Man(b1-4)GlcNAc(b1-4)GlcNAc
# In short: as §1
# [11] = molecular target: Neu5Ac(a2-6)Gal(b1-4)GlcNAc(b1-2)[Neu5Ac(a2-6)Gal(b1-4)GlcNAc(b1-4)]Man(a1-3)[GlcNAc(b1-4)][Neu5Ac(a2-6)Gal(b1-4)GlcNAc(b1-4)Man(a1-6)]Man(b1-4)GlcNAc(b1-4)GlcNAc
# In short: as §1
# [12] = molecular target: Neu5Ac(a2-6)Gal(b1-4)GlcNAc(b1-2)[Neu5Ac(a2-6)Gal(b1-4)GlcNAc(b1-6)]Man(a1-6)[Neu5Ac(a2-6)Gal(b1-4)GlcNAc(b1-2)Man(a1-3)][GlcNAc(b1-4)]Man(b1-4)GlcNAc(b1-4)GlcNAc
# In short: as §1
# [13] = molecular target: Neu5Ac(a2-6)Gal(b1-4)GlcNAc(b1-3)Gal(b1-3)GlcNAc
# In short: as §1
# [14] = molecular target: Neu5Ac(a2-6)Gal(b1-4)GlcNAc(b1-3)Gal(b1-4)GlcNAc
# In short: as §1
# [15] = molecular target: Neu5Ac(a2-6)Gal(b1-4)GlcNAc(b1-3)Gal(b1-4)GlcNAc(b1-2)Man(a1-3)[Neu5Ac(a2-6)Gal(b1-4)GlcNAc(b1-3)Gal(b1-4)GlcNAc(b1-2)Man(a1-6)]GalNAc
# In short: as §1
# [16] = molecular target: Neu5Ac(a2-6)Gal(b1-4)GlcNAc(b1-3)Gal(b1-4)GlcNAc(b1-3)Gal(b1-4)GlcNAc
# In short: as §1
# [17] = molecular target: Neu5Ac(a2-6)Gal(b1-4)GlcNAc(b1-3)Gal(b1-4)GlcNAc(b1-3)Gal(b1-4)GlcNAc(b1-2)Man(a1-3)[Neu5Ac(a2-6)Gal(b1-4)GlcNAc(b1-3)Gal(b1-4)GlcNAc(b1-3)Gal(b1-4)GlcNAc(b1-2)Man(a1-6)]GalNAc
# In short: as §1
# [18] = molecular target: Neu5Ac(a2-6)Gal(b1-4)GlcNAc(b1-3)Gal(b1-4)GlcNAc(b1-3)GalNAc
# In short: as §1
# [19] = molecular target: Neu5Ac(a2-6)Gal(b1-4)GlcNAc(b1-3)Gal(b1-4)GlcNAc(b1-3)[Neu5Ac(a2-6)Gal(b1-4)GlcNAc(b1-3)Gal(b1-4)GlcNAc(b1-6)]GalNAc
# In short: as §1
# [20] = molecular target: Neu5Ac(a2-6)Gal(b1-4)GlcNAc(b1-3)Gal(b1-4)GlcNAc(b1-6)[Gal(b1-3)]GalNAc
# In short: as §1
# [21] = molecular target: Neu5Ac(a2-6)Gal(b1-4)GlcNAc(b1-3)Gal(b1-4)[Fuc(a1-3)]GlcNAc(b1-3)Gal(b1-4)[Fuc(a1-3)]GlcNAc
# In short: as §1
# [22] = molecular target: Neu5Ac(a2-6)Gal(b1-4)GlcNAc(b1-3)GalNAc
# In short: as §1
# [23] = molecular target: Neu5Ac(a2-6)Gal(b1-4)GlcNAc(b1-3)[Neu5Ac(a2-6)Gal(b1-4)GlcNAc(b1-6)]GalNAc
# In short: as §1
# [24] = molecular target: Neu5Ac(a2-6)Gal(b1-4)GlcNAc(b1-6)GalNAc
# In short: as §1
# [25] = molecular target: Neu5Ac(a2-6)Gal(b1-4)GlcNAc(b1-6)[Gal(b1-3)GlcNAc(b1-3)]Gal(b1-4)Glc
# In short: as §1
# [26] = molecular target: Neu5Ac(a2-6)Gal(b1-4)GlcNAc(b1-6)[Gal(b1-3)]GalNAc
# In short: as §1
# [27] = molecular target: Neu5Ac(a2-6)Gal(b1-4)GlcNAc6S
# In short: as §1
# Neu5Ac(a2-6)GalNAc = molecular target: Neu5Ac(a2-6)GalNAc
# In short: as §1
# [28] = molecular target: Neu5Ac(a2-6)GalNAc(b1-4)GlcNAc
# In short: as §1
# [29] = molecular target: Neu5Ac(a2-6)GalNAc(b1-4)GlcNAc6S
# In short: as §1
# [30] = molecular target: Neu5Ac(a2-6)GlcNAc(b1-4)GlcNAc
# In short: as §1
binder,measurement,setting,value
B1,glycan array binding signal (z-score),[1],-0.237
same,glycan array binding signal (z-score),[2],-0.271
same,glycan array binding signal (z-score),[3],-0.245
same,glycan array binding signal (z-score),[4],-0.242
same,glycan array binding signal (z-score),[5],-0.247
same,glycan array binding signal (z-score),[6],-0.241
same,glycan array binding signal (z-score),[7],-0.241
same,glycan array binding signal (z-score),[8],-0.24
same,glycan array binding signal (z-score),[9],-0.246
same,glycan array binding signal (z-score),[10],-0.943
same,glycan array binding signal (z-score),[11],-0.478
same,glycan array binding signal (z-score),[12],-0.241
same,glycan array binding signal (z-score),[13],-0.247
same,glycan array binding signal (z-score),[14],-0.238
same,glycan array binding signal (z-score),[15],-0.213
same,glycan array binding signal (z-score),[16],-0.232
same,glycan array binding signal (z-score),[17],-0.208
same,glycan array binding signal (z-score),[18],-0.566
same,glycan array binding signal (z-score),[19],-0.228
same,glycan array binding signal (z-score),[20],-0.248
same,glycan array binding signal (z-score),[21],-0.222
same,glycan array binding signal (z-score),[22],-0.12
same,glycan array binding signal (z-score),[23],-0.224
same,glycan array binding signal (z-score),[24],-0.233
same,glycan array binding signal (z-score),[25],-0.252
same,glycan array binding signal (z-score),[26],-0.245
same,glycan array binding signal (z-score),[27],-0.253
same,glycan array binding signal (z-score),Neu5Ac(a2-6)GalNAc,1.88
same,glycan array binding signal (z-score),[28],1.59
same,glycan array binding signal (z-score),[29],0.198
same,glycan array binding signal (z-score),[30],-0.241
